Data: PubChem BioAssay AID686970 (National Center for Advancing Translational Sciences (NCATS), 2013)
Hit rate of the full screen: of about 360,000 compounds, about 6,000 (1.7%) were called active. The shares of active, inactive and inconclusive entries below differ from those in the screen. The call rests on the fitted dose curve; in most records, active means well fitted cell-killing curve with a large enough effect; inconclusive means small, poorly fitted or top-dose-only effect, or effect the other way; inactive means flat fitted curve, though single readings scatter. No potency is given beside an inconclusive call; the fits are too rough.

Assay: qHTS for induction of synthetic lethality in tumor cells producing 2HG: qHTS for the HT-1080-NT fibrosarcoma cell line;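 further: NT is the 2HG producing partner of a matched IDH1 knockdown line; nearly all actives have a fitted effect of over 55% in size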;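 on activity, negative = less viability: 0% = DMSO-treated cells and -100% = media-only wells without cells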
Details: HT-1080-NT fibrosarcoma viability, CellTiter-Glo ATP luminescence, 48 h; activity, negative = less viability: at 46.1 µM (top of the series) unless noted
Outline: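 Fibrosarcoma NT cells, 750 per well in 5% FBS RPMI, were exposed to compound for 48 hours. Viability: CellTiter-Glo luminescence.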
Potency means the concentration at half of the fitted maximal effect; tags describe the fitted curve by direction and shape.

Structure (SMILES) | Potency | activity, negative = less viability
CCOC(=O)[C@H]1[C@H]2COc3ccccc3[C@@H]2N2C(=O)c3ccc(Cl)cc3NC(=O)[C@@]12C | inconclusive [cytotoxic, single point] | 
O=C(Nc1cccc(NC(=O)c2cncc(Br)c2)c1)c1cncc(Br)c1 | inconclusive [cytotoxic, single point] | 
CC(C)Cn1c(=O)c(C(=O)Nc2ccccc2S(N)(=O)=O)c(O)c2ccccc21 | inconclusive [cytotoxic, single point] | 
COc1cc(SC)ccc1C(=O)N1CCN(c2ccccc2OC)CC1 | active: 9.2 µM | 
CC(C)CC(N)c1csc(NC(=O)Nc2ccccc2C(C)C)n1 (stereo not drawn) | inconclusive [cytotoxic, single point] | 
C=C(C)COc1ccc(-c2nc(N)ncc2Oc2ccc(OC)cc2)c(O)c1 | inconclusive [cytotoxic, single point] | 
O=C(Cn1cc(COc2ccc(-n3cccc3)cc2)nn1)NS(=O)(=O)c1ccccc1C(F)(F)F | inconclusive [rising, single point] | 
COCCNc1oc(/C=C/c2ccccc2)nc1C#N |  | inactive: 3.38%
Cc1c(C(=O)Nc2ccc3oc(-c4cccnc4)nc3c2)oc2ccccc12 | inconclusive [cytotoxic, single point] | 
Cc1cc(S(=O)(=O)c2ccc([N+](=O)[O-])cn2)ccc1Br | active: 2.31 µM | 
COC(=O)[C@@]12C[C@@H](CC(=O)NCc3cccc(C(F)(F)F)c3)C(=O)N(Cc3ccc4c(c3)OCO4)C1=CCC(C)(C)C2 | active: 13 µM | 
Nc1nc(N)nc(Cc2ccccc2O)n1 |  | inactive: 0.145%
O=C(Nc1cccc(C(=O)O)c1)Nc1cccc2ccccc12 |  | inactive: 10.9%
CC(=O)c1ccc(OCc2cc(C(=O)N(C)Cc3cc(C)no3)no2)cc1 |  | inactive: -0.651%
CCCc1nc2ccc(C)cn2c1Cc1cccc(Cl)c1 | inconclusive [cytotoxic, single point] | 
C=CCc1cc(Cl)ccc1OCCCNC(C)C | inconclusive [cytotoxic, single point] | 
CCn1ncc(/C=N\NC(=O)c2cc(-c3ccc(C)cc3C)nc3ccccc23)c1C | inconclusive [cytotoxic, single point] | 
O=c1c2ccccc2sc2c(CO)ccc(NCCN3CCCCC3)c12 |  | inactive: -28.2%
O=c1[nH]c(-c2ccccc2)ncc1OCc1ccccc1 |  | inactive: 10.7%
COc1ccccc1CNc1nc(NCCOc2ccccc2)c2sccc2n1 | inconclusive [cytotoxic, single point] | 
C=CC[C@H](CC(=O)N(CCO)Cc1ccccc1)C(=O)N[C@@H](COC(=O)[C@@H](CC=C)Cc1ccc(F)cc1)Cc1c[nH]c2ccccc12 | inconclusive [cytotoxic, single point] | 
N#Cc1c(NCCCO)nc(-c2ccccc2)c2c1CCCC2 |  | inactive: -15.6%
CC1CCCN(S(=O)(=O)c2ccc(NC(=O)Cn3nnc(-c4ccccc4F)n3)cc2)C1 (stereo not drawn) | inconclusive [cytotoxic, single point] | 
COc1cccc(C=NNc2nc3ccccc3s2)c1OC | inconclusive [cytotoxic, single point] | 
Brc1ccc2c(c1)[C@H]1OCC[C@H]1[C@@H](c1cccs1)N2 | inconclusive [cytotoxic, partial curve] | 

Structure (SMILES) | Potency | activity, negative = less viability
O=C(Nc1nnc(-c2cccs2)o1)c1cc(-c2ccccc2)nc2ccccc12 | inconclusive [cytotoxic, partial curve] | 
O=[N+]([O-])c1ccc(N2CCN(S(=O)(=O)c3ccc(Cl)cc3)CC2)cc1NCc1cccnc1 |  | inactive: -0.577%
CCOC(=O)[C@]12CCCC=C1N(Cc1ccc3c(c1)OCO3)C(=O)[C@H](CC(=O)N1CCCC1)C2 |  | inactive: 1.39%
CCCCN(C(=O)c1ccc(C)cc1)c1c(N)n(CCC)c(=O)[nH]c1=O |  | inactive: 8.11%
C=C1CCC[C@]2(C)C[C@H]3OC(=O)C(CNC(C)CC)[C@H]3CC12 (stereo partly drawn) | inconclusive [cytotoxic, single point] | 
O=C1CCC([N+](=O)[O-])C(c2ccc3c(c2)OCO3)N1 (stereo not drawn) |  | inactive: -6.16%
N#Cc1ccccc1NC(=O)CN(Cc1ccccc1)Cc1ccccc1 |  | inactive: -9.32%
O=[N+]([O-])c1ccc(/C=N/Nc2ccc3ccccc3c2)o1 |  | inconclusive: -30.2% [cytotoxic]
CCOC(=O)c1c(C)c(C(=O)Nc2cc(OC)ccc2OC)c(C)n1CC | active: 7.08 µM | 
O=C(CN(Cc1ccccc1)S(=O)(=O)c1ccccc1)N/N=C/c1ccccc1[N+](=O)[O-] | inconclusive [cytotoxic, single point] | 
COCCNC(=O)c1cc2c(-c3ccc(Cl)cc3)nn(C)c2s1 |  | inactive: -25.6%
Cc1ccc(S(=O)(=O)NC2CC(C)(C)NC(C)(C)C2)cc1 |  | inactive: 7.94%
CC1=NOC(=O)/C1=C\c1ccc(-c2ccc(Cl)cc2Cl)o1 |  | inconclusive: -30.7% [cytotoxic]
Nn1c(SCC(=O)Nc2c(Cl)cccc2Cl)nncc1=O |  | inactive: -2.57%
Cc1nc([N+](=O)[O-])c(Br)n1CC(=O)c1ccc(Cl)cc1 | inconclusive [cytotoxic, single point] | 
Cc1cc(SCC(=O)N(C)CC(=O)Nc2ccc(F)cc2)nc2ccccc12 |  | inactive: -2.52%
COc1ccccc1CNC(=O)C1(C)CCN1Cc1ccc(OC(F)(F)F)cc1 (stereo not drawn) | inconclusive [cytotoxic, single point] | 
C=CCc1ccc(OCC(O)COc2ccc(CC=C)cc2OC)c(OC)c1 | inconclusive [cytotoxic, single point] | 
Cc1ccc(NC(=S)NCCC(c2ccccc2)c2ccccc2)c(C)c1 |  | inactive: -17.3%
COCc1cc(S(=O)c2ccc(Cl)cc2)nc(C)n1 (stereo not drawn) | inconclusive [cytotoxic, single point] | 
OC(c1ccccn1)(c1ccccn1)c1ccccn1 | inconclusive [cytotoxic, single point] | 
CC(=O)CCc1oc2ccc(C)cc2c1-c1ccc(C)o1 |  | inactive: -17.2%
CCOC(=O)C1=CC[C@@H](c2ccc(OC)cc2)N(S(=O)(=O)c2ccc(C)cc2)[C@H]1CC |  | inactive: -5.21%
Nc1nc2c(nnn2Cc2ccc(Cl)c(Cl)c2)c(=O)[nH]1 |  | inconclusive: -30% [cytotoxic]
COC(=O)CCCC(=O)N(C)CC1CCCN(CCc2ccccc2C)C1 (stereo not drawn) |  | inactive: 9.55%

Structure (SMILES) | Potency | activity, negative = less viability
CCOC1=C2CN(S(=O)(=O)c3ccc(C)cc3)[C@H](c3cccc4ccccc34)C[C@H]2C(C#N)(C#N)C(C#N)(C#N)C1 | inconclusive [cytotoxic, single point] | 
Fc1ccc(Sc2nc(-c3ccccc3)nnc2C(F)(F)F)cc1 | active: 23.1 µM | 
CCOC(=O)c1ccc(NC(=S)N(CCCN2CCCCCC2)Cc2ccco2)cc1 | inconclusive [cytotoxic, single point] | 
Cc1cc(C(=O)COc2cccnc2[N+](=O)[O-])c(C)n1-c1ccccc1 |  | inactive: -5.65%
COc1ccc(C(=O)Nc2cccc(-c3nc4ncccc4o3)c2C)cc1 |  | inactive: -1.31%
COc1cccc(-c2ccc(NC(=O)C3CCCN(Cc4cnn(C)c4)C3)cc2)c1 (stereo not drawn) | inconclusive [cytotoxic, partial curve] | 
COc1cc(/C=N/n2c(-c3ccccc3)n[nH]c2=S)cc(OC)c1OC | inconclusive [cytotoxic, partial curve] | 
Cc1cccc(N2CCN(CCNC(=O)c3cc4c(s3)CS(=O)(=O)C4)CC2)c1C | inconclusive [cytotoxic, single point] | 
COCCn1c(=O)[nH]c(=O)c2c1nc(-c1ccc(-c3ccc(Cl)cc3[N+](=O)[O-])o1)n2Cc1ccccc1 | inconclusive [cytotoxic, single point] | 
NN=C(c1cccc([N+](=O)[O-])c1)c1cccc([N+](=O)[O-])c1 |  | inactive: 0.245%
NC(=O)C1CCN(CC(O)COc2ccc(-c3ccccc3)cc2)CC1 (stereo not drawn) | inconclusive [cytotoxic, single point] | 
O=C1CCCC/C=C\C[C@H](CC(=O)N(CCO)Cc2ccccc2)C(=O)NCCO1 |  | inactive: 10.5%
CCOC(=O)c1cccc(NC(=O)c2ccc(NC(=O)c3ccco3)cc2)c1 | inconclusive [cytotoxic, single point] | 
O=C(N/N=C/c1ccc2c(c1)OCO2)c1ccc2c(c1)OCO2 | inconclusive [cytotoxic, partial curve] | 
Cn1cnc(S(=O)(=O)Nc2ccc(OC(F)F)cc2)c1 |  | inactive: -3.39%
Cc1ccc(CNC(=O)c2cc3c(s2)CN(Cc2ccccc2)C3)cc1 | inconclusive [cytotoxic, single point] | 
Cc1ccc(NC(=O)CSc2nc3ncc(Cl)cc3[nH]2)c(C)c1 | inconclusive [rising, partial curve] | 
Cc1cc(NC(=O)COc2cccc(Oc3ccccc3)c2)no1 | inconclusive [cytotoxic, partial curve] | 
CCOc1ccccc1N(C)S(=O)(=O)c1ccc2c(c1)CC(C)N2C(=O)C1CC1 (stereo not drawn) | inconclusive [cytotoxic, partial curve] | 
C[N+](C)(C)CCOC(N)=O | inconclusive [rising, single point] | 
CCc1sc(C(C2C(=O)CC(C)(C)CC2=O)C2C(=O)CC(C)(C)CC2=O)cc1[N+](=O)[O-] |  | inactive: -1.82%
CCOc1c(Br)cc(/C=C(\C#N)C(=O)NC2CC2)cc1OC | active: 23.1 µM | 
CCOCCCN(C)C1CCN(C(=O)c2oc3ccccc3c2NC(=O)c2cccc([N+](=O)[O-])c2)CC1 |  | inactive: -9.8%
